The record followed here is PubChem BioAssay AID2676 (National Center for Advancing Translational Sciences (NCATS), 2010).

Hit rate of the full screen: of about 370,000 compounds, about 1,100 (0.3%) were called active. About 1% were inconclusive and are not listed. Calls follow the shape of the dose curve; as a rule, active = well fitted activation curve with a large enough effect; inconclusive = small, poorly fitted or top-dose-only effect; inactive = flat fitted curve, though single readings scatter. Only a part is listed here, and it is no random draw.
% is scaled to controls: 0 for no effect and ±100 for the full control effect; potency is read from the fitted curve at half-maximal effect.

UniProt Q9HBX9, sequence (Q9HBX9 whole entry, looked up): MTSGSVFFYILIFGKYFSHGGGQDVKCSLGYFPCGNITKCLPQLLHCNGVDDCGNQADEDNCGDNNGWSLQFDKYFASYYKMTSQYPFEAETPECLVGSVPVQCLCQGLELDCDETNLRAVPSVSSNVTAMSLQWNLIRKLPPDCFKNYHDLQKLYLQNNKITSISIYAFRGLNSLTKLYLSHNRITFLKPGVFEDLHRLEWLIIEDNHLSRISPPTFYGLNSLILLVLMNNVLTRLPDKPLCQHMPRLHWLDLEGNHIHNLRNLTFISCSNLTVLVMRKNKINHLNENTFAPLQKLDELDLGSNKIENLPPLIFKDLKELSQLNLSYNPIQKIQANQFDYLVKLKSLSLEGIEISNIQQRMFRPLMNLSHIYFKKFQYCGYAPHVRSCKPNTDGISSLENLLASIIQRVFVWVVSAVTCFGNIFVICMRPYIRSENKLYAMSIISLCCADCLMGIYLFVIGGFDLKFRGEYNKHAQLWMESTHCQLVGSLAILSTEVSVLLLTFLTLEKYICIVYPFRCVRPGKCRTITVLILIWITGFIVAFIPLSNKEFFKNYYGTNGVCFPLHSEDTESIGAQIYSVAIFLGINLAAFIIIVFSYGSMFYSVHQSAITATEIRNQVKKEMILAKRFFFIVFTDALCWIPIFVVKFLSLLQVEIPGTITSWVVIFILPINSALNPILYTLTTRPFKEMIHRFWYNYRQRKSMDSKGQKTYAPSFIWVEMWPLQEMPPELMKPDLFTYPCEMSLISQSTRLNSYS

In this test the target is Relaxin receptor 1 (Homo sapiens) (UniProt Q9HBX9). Nature of the test: qHTS Assay for Agonists of the Relaxin Receptor RXFP1. Also: nearly all actives have a fitted effect of over 60% in size. Particulars: HEK293T-RXFP1 cAMP TR-FRET, 30 min; series mostly up to 57.5 µM; activation: at the top concentration. The source says:
NIH Chemical Genomics Center [NCGC] NIH Molecular Libraries Probe Production Centers Network [MLPCN] MLPCN Grant: R03 MH085705-01A1 Assay Submitter (PI): Alexander Agoulnik NCGC Assay Overview: The relaxin hormone is involved in the variety of biological functions in normal tissues and diseases. The role of relaxin is well-established in female reproduction and parturition, mammary gland and endometrial development, maintenance of myometrial quiescence during pregnancy. Relaxin signaling through its G protein-coupled receptor (GPCR) RXFP1 results in ECM remodeling through regulation of collagen deposition, cell invasiveness, proliferation and overall tissue homeostasis. […] Recombinant human relaxin (rhRlx) is currently being tested in clinical trials as a protective agent in congestive heart failure, in treating severe preeclampsia, and as an anti-fibrotic agent in systemic sclerosis. Upon relaxin binding RXFP1 activation leads to the activation of adenylate cyclase (AC) via Gs. cAMP will activate PKA, which phosphorylates many signaling proteins. Thus, detection of cAMP increase is an easy and reliable indication of relaxin receptor activation. To screen for agonists of the relaxin receptor, a HEK293T cell line stably transfected with RXFP1 was used. RXFP1 activation was assayed by changes in cAMP levels as detected with a time-resolved fluorescence energy transfer (TR-FRET) cAMP detection kit.
NCGC Assay Protocol Summary: This is a cell-based assay for cAMP second messenger response to screen for agonists of the RXFP1 receptor. The assay was conducted in the presence of a PDE4 inhibitor (Ro 20174). The cells were lysed and the cAMP levels were measured with a TR-FRET cAMP kit. Presence of cAMP in the cell lysate disrupts binding between the cryptate-labeled anti-cAMP and d2-labeled cAMP pair, leading to a decrease in the TR-FRET signal. Data were normalized to the controls for basal activity (buffer only) and 100% activity (29 nM porcine relaxin). The EC50 values were determined from concentration-response data modeled with the standard Hill equation 1536-well assay protocol for the HEK293 RXFP1 cAMP assay: (1) Add 3 ul HEK293 RXFP1 cell culture. 2000 cells/well in DMEM/F12, 10% FBS, 1x Pen/Strep (dispensed offline with MultiDrop Combi). (2) Incubate 16-24 hr at 37C, 5% CO2. (3) Add 1 ul 400uM Ro20174 in DPBS, 0.05% BSA, 0.005% Tween 20. (3) Add 23 nl compounds in DMSO solution. Final concentration was 0.5 - 58 uM. (4) Incubate 30 min at 37C, 5% CO2. (5) Add 1 ul cAMP-d2 in lysis buffer (HTRF cAMP HiRange kit, CisBio). (6) Add 1 ul anti-cAMP antibody-cryptate in lysis buffer (HTRF cAMP HiRange kit, CisBio). (7) Incubate 30 min at room temperature. (6) Detect the assay plate in a ViewLux plate reader (PerkinElmer) with Ex=320 nm, Em1=615 nm and Em2=665 nm. Keywords: relaxin, RXFP1, RXFP2, G-protein coupled receptor, cAMP, agonist, high throughput screening, MLSMR, MLSCN, NIH Roadmap, qHTS and NCGC
As for `O=c1[nH]c(O)c(N=Nc2ccc([N+](=O)[O-])cc2)c(=O)[nH]1`, the Potency was active: 14.1 µM.

Consider `Nc1ncc2[nH]cnc2n1`, for which the “activation” value is inactive: 2.2%. For `CCCNC1=C(C)C(=O)C2=C(C1=O)C(COC(N)=O)[C@]1(OC)C3NC3CN21` (stereo partly specified), the “activation” value was inactive: -55.4%. Turning to `O=c1[nH]c(=S)n(C2CC2)c(O)c1C=NCc1ccc(F)cc1`, the Potency was active: 25.1 µM.

For `O=C1NC(=S)NC(=O)C1=Cc1ccc2c(c1)CCN2CCCCl`, the “activation” value was inactive: -33%. Same read-out and setting: to `CC[n+]1c(/C=C/C=C/c2ccc(N(C)C)cc2)sc2ccccc21` belongs inactive: -30.3%.
